US4663320A, “(2-oxo-1,2,3,5-tetrahydroimidazo[2,1-b]quinoazolinyl)oxyalkylamides, compositions and the use thereof” (Syntex (U.S.A.) Inc., priority 1985, dated 1987)
At least one structure is not confirmed: it was looked up by name or label, or the drawing left a doubt.

Experiments:
[1] = system: Human platelet cyclic AMP phosphodiesterase; assay: Cyclic AMP phosphodiesterase assay (human platelet); assay type: biochemical; conditions: for IC50: human platelet phosphodiesterase, 1 μM cyclic AMP as substrate; for Relative Potency: relative to theophylline (assigned a value of 1) on human platelet phosphodiesterase
Method: (§1) The inhibition of cyclic AMP phosphodiesterase activity by the subject compounds was assayed by the method of Filburn and Karn, Analyt. Biochem., 52:505-516 (1973), using 1 μM cyclic AMP as the substrate. Human platelet cyclic AMP phosphodiesterase was obtained from human donors. Platelets were isolated and washed by centrifugation, the membranes ruptured by a sequential freeze-thaw procedure and hypotonic lysis and the soluble enzyme isolated by high speed centrifugation. The enzyme was stored in aliquots at -20° C.
(§2) This table contains the IC50 values for human platelet phosphodiesterase and IC25 values for rat heart phosphodiesterase.

[2] = system: rat heart phosphodiesterase; assay: Cyclic AMP phosphodiesterase inhibition (rat heart); assay type: biochemical
Method: as §1, §2

O=C1CN2Cc3cc(OCCCC(=O)N(CCN4CCOCC4)C4CCCCC4)ccc3N=C2N1 [N-cyclohexyl-N-(2-morpholinylethyl)-4-(2-oxo-1,2,3,5-tetrahydroimidazo[2,1-b]quinazolin-7-yl)oxybutyramide]
IC50 [1]: 4.1 nM
Relative Potency [1]: 66,000
Rat Heart IC25 [2]: 32 nM

O=C1CN2Cc3cc(OCCCC(=O)N4CCc5ccccc54)ccc3N=C2N1 [indolinyl (n = 3, position 7), indolinyl-4-(2-oxo-1,2,3,5-tetrahydroimidazo[2,1-b]quinazolin-7-yl)oxybutyramide]
IC50 [1]: 76 nM
Relative Potency [1]: 3,550
Rat Heart IC25 [2]: 260 nM

O=C1CN2Cc3cc(OCCCC(=O)N4CCOCC4)ccc3N=C2N1 [morpholinyl (n = 3, position 7), morpholinyl-4-(2-oxo-1,2,3,5-tetrahydroimidazo[2,1-b]quinazolin-7-yl)oxybutyramide]
IC50 [1]: 1600 nM
Relative Potency [1]: 169
Rat Heart IC25 [2]: 7,000 nM

O=C1CN2Cc3cc(OCCCC(=O)N4CCCCC4)ccc3N=C2N1 [piperidinyl (n = 3, position 7), piperidinyl-4-(2-oxo-1,2,3,5-tetrahydroimidazo[2,1-b]quinazolin-7-yl)oxybutyramide]
IC50 [1]: 260 nM
Relative Potency [1]: 1,040
Rat Heart IC25 [2]: 1,500 nM

O=C1CN2Cc3cc(OCCCC(=O)N4CCCC4)ccc3N=C2N1 [pyrollidinyl (n = 3, position 7), pyrrolidinyl-4-(2-oxo-1,2,3,5-tetrahydroimidazo[2,1-b]quinazolin-7-yl)oxybutyramide]
IC50 [1]: 340 nM
Relative Potency [1]: 794
Rat Heart IC25 [2]: 1,700 nM

O=C1CN2Cc3cc(OCCCC(=O)N4CCc5ccccc5C4)ccc3N=C2N1 [tetrahydroisoquinolinyl-4-(2-oxo-1,2,3,5-tetrahydroimidazo[2,1-b]quinazolin-7-yl)oxybutyramide]
IC50 [1]: 180 nM
Relative Potency [1]: 1,500
Rat Heart IC25 [2]: 520 nM

O=C1CN2Cc3cc(OCCCC(=O)N4CCCc5ccccc54)ccc3N=C2N1 [tetrahydroquinolinyl-4-(2-oxo-1,2,3,5-tetrahydroimidazo[2,1-b]quinazolin-7-yl)oxybutyramide]
IC50 [1]: 10 nM
Relative Potency [1]: 27,000
Rat Heart IC25 [2]: 160 nM
